In a collection of fitness landscapes (doi:10.1126/science.1257360) one finds enrichment ratio data, which are given here for 153 variants.

The other results are listed elsewhere or left out.

Sequences and labels used below:
B1: PhoQ; a variant is named by its letters at X, in order, P23837 (parent)
chain: MKKLLRLFFPLSLRVRFLLATAAVVLVLSLAYGMVALIGYSVSFDKTTFRLLRGESNLFYTLAKWENNKLHVELPENIDKQSPTMTLIYDENGQLLWAQRDVPWLMKMIQPDWLKSNGFHEIEADVNDTSLLLSGDHSIQQQLQEVREDDDDAEMTHSVAVNVYPATSRMPKLTIVVVDTIPVELKSSYMVWSWFIYVLSANLLLVIPLLWVAAWWSLRPIEALAKEVRELEEHNRELLNPATTRELTSLVRNLNRLLKSERERYDKYRTTLTDLTHSLKTPLXXLQXXLRSLRSEKMSVSDAEPVMLEQISRISQQIGYYLHRASMRGGTLLSRELHPVAPLLDNLTSALNKVYQRKGVNISLDISPEISFVGEQNDFVEVMGNVLDNACKYCLEFVEISARQTDEHLYIVVEDDGPGIPLSKREVIFDRGQRVDTLRPGQGVGLAVAREITEQYEGKIVAGESMLGGARMEVIFGRQHSAPKDE

In this experiment the parent is B1. Briefly: enrichment ratio after two sorts for PhoP signalling (ratio (wild type AVST 3.29)); higher = more functional. To be noted: with PhoP (E. coli).
EALK: the enrichment ratio was not above 0.25.
As for DHKL, the figure is not above 0.25; as for AKQG, not above 0.25.
As for VSWV, the figure is 1.62; as for CSHW, not above 0.25.
The result for WGSM reads not above 0.25.
For WMYP, the enrichment ratio is not above 0.25.
The result for YKCN reads not above 0.25; that for YTVA, not above 0.25.
Consider TFIG, for which the enrichment ratio was not above 0.25.
As for PWFP, the figure is not above 0.25; as for WPHH, not above 0.25.
As for FSNE, the enrichment ratio is not above 0.25.
For GNRR, the enrichment ratio is not above 0.25.
The result for LRDE reads not above 0.25.
The result for PFMQ reads not above 0.25; that for RYQL, not above 0.25.
As for YSAC, the figure is not above 0.25; as for EAKC, not above 0.25; as for YLTC, not above 0.25.
Turning to MTHI, the enrichment ratio was 0.77.
On to MEAV, for which the enrichment ratio amounted to 7.57.
FQKI: the enrichment ratio was not above 0.25.
Consider MHML, for which the enrichment ratio is not above 0.25.
On to WAAN, for which the enrichment ratio was not above 0.25.
The result for FMPR reads not above 0.25.
On to HIHR, for which the enrichment ratio is not above 0.25.
As for TAPE, the figure is not above 0.25; as for YFEK, not above 0.25.
Consider RQGV, for which the enrichment ratio is not above 0.25.
With MVFC, the enrichment ratio is not above 0.25.
As for NFSE, the figure is not above 0.25.
As for HFMC, the figure is not above 0.25; as for YMMW, not above 0.25.
As for VKWE, the figure is not above 0.25; as for WARM, not above 0.25.
Regarding VFMQ, the enrichment ratio is not above 0.25.
As for NNNP, the figure is not above 0.25; as for VTFS, not above 0.25.
GIRH: the enrichment ratio is not above 0.25.
The result for FMVP reads not above 0.25.
As for LHDT, the figure is not above 0.25; as for ETCV, not above 0.25; as for LNFP, not above 0.25.
The result for MKFE reads not above 0.25.
As for PDGF, the enrichment ratio is not above 0.25.
As for FCTD, the enrichment ratio was not above 0.25.
On to LIIS, for which the enrichment ratio was not above 0.25.
YSTQ: the enrichment ratio was not above 0.25.
As for HMKF, the figure is not above 0.25; as for WLPQ, not above 0.25.
As for WNGN, the figure is not above 0.25.
RQRG: the enrichment ratio was not above 0.25.
Turning to HVIP, the enrichment ratio is not above 0.25.
As for PRQS, the figure is not above 0.25; as for FYAV, not above 0.25.
Turning to YEKI, the enrichment ratio was not above 0.25.
The result for QCWK reads not above 0.25; that for HFWM, not above 0.25.
As for WMCN, the enrichment ratio is not above 0.25.
The result for YTFI reads not above 0.25; that for VNLE, not above 0.25.
The result for ADDY reads not above 0.25; that for VNVG, 0.357; that for LDYA, not above 0.25.
For the variant LVMK, the enrichment ratio is not above 0.25.
As for GPCG, the figure is not above 0.25.
The result for PPME reads not above 0.25; that for YSGF, not above 0.25.
For the variant QKFH, the enrichment ratio was not above 0.25.
The result for DQCA reads not above 0.25; that for SCAQ, 3.78; that for GFTI, not above 0.25.
The result for FHDF reads not above 0.25; that for VYRL, not above 0.25.
As for HWWS, the figure is not above 0.25; as for AWPE, not above 0.25.
In the case of HQII, the enrichment ratio is not above 0.25.
With TSWC, the enrichment ratio was determined as 17.5.
As for HSHK, the figure is not above 0.25; as for WFPQ, not above 0.25; as for EKPN, not above 0.25.
As for TCEA, the figure is not above 0.25.
For AMNS, the enrichment ratio was not above 0.25.
The result for LHLW reads not above 0.25; that for RCIC, not above 0.25.
As for AGKA, the figure is not above 0.25; as for VESW, not above 0.25.
Regarding LPVT, the enrichment ratio was not above 0.25.
The result for SAAS reads 4.35; that for HVIN, not above 0.25; that for WEGP, not above 0.25.
The result for YILS reads 0.603; that for PYTC, not above 0.25; that for STNN, 2.04.
Take LTPV: the enrichment ratio is not above 0.25.
As for MPYL, the figure is not above 0.25; as for VAKS, not above 0.25.
Turning to SKWS, the enrichment ratio amounted to 0.766.
As for PAHA, the figure is not above 0.25; as for PWEP, not above 0.25; as for ICRW, not above 0.25.
Consider WGKN, for which the enrichment ratio is not above 0.25.
As for IDRH, the figure is not above 0.25; as for IYRA, not above 0.25.
Regarding WPVA, the enrichment ratio was not above 0.25.
As for VKIE, the figure is not above 0.25; as for KLMF, not above 0.25; as for DCMD, not above 0.25.
For HNMV, the enrichment ratio is not above 0.25.
As to YFHN, the enrichment ratio is not above 0.25.
Consider HHDL, for which the enrichment ratio is not above 0.25.
The result for KAWP reads not above 0.25.
As for SDWW, the figure is not above 0.25.
Consider GESQ, for which the enrichment ratio was 4.33.
As for NIDH, the figure is not above 0.25; as for ECIS, not above 0.25.
The result for NYQF reads not above 0.25.
The result for RHED reads not above 0.25.
AMCA: the enrichment ratio worked out at 19.4.
On to YHNW, for which the enrichment ratio is not above 0.25.
The result for MEAN reads 32.4; that for SIVW, not above 0.25; that for HGIM, 3.13.
For the variant QFND, the enrichment ratio was not above 0.25.
RPMC: the enrichment ratio was not above 0.25.
As to FTDK, the enrichment ratio was not above 0.25.
On to EFHI, for which the enrichment ratio was not above 0.25.
For the variant HPNF, the enrichment ratio is not above 0.25.
As for ADID, the enrichment ratio was not above 0.25.
Turning to PSVQ, the enrichment ratio is not above 0.25.
Consider WHYC, for which the enrichment ratio is not above 0.25.
Consider EMDS, for which the enrichment ratio is not above 0.25.
As for RFRN, the figure is not above 0.25; as for IYVD, not above 0.25; as for SVPT, not above 0.25.
The result for NHMI reads not above 0.25; that for HMLR, not above 0.25; that for WTVK, not above 0.25.
The result for SIAE reads 1.19; that for PACI, not above 0.25.
Consider FFAS, for which the enrichment ratio was not above 0.25.
As to ASLR, the enrichment ratio is 3.29.
With FLCR, the enrichment ratio is not above 0.25.
As for FMAG, the figure is not above 0.25; as for WNYS, not above 0.25; as for GIHQ, not above 0.25.
RWCL: the enrichment ratio is not above 0.25.
As to HHCR, the enrichment ratio is not above 0.25.
As for PYCP, the figure is not above 0.25; as for WMQL, not above 0.25.
The result for CSYH reads not above 0.25; that for GRML, not above 0.25.
